# Measurements from the supplement of paper PMC7266297.
# Where “and” joins values, the source holds several entries; their conditions need not be identical. Equal values may be shown once. Where a name gives a salt, the structure may show the parent alone. The list shows a part of the results. Single values are uncertain, as repeats are few or missing.
# System: KB-3-1
# Assay: growth inhibition relative to DMSO control (SRB); cervical cancer cells: KB-3-1 is the parent and KB-V1 overexpresses MDR1; SRB is the sulforhodamine B stain; higher = more growth inhibition
# Conditions: 1 µM; 72 h
# 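Further: Read-out is SRB optical density at 490 nm, with the control being wells given 0.5% DMSO vehicle, and compound added one day after cells were plated.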
row,SMILES,growth inhibition
1,CN(C)C(=O)[C@H](O)[C@H](Cc1ccccc1)NC(=O)c1cc2cc(Cl)ccc2[nH]1,< 0%
2,COc1cc2nc(N(C)CCCNC(=O)C3CCCO3)nc(N)c2cc1OC (stereo not given) [Alfuzosin HCl],12.4%
3,O=C1NC(=O)C(c2ccccc2)(c2ccccc2)N1 [Phenytoin],26%
4,COc1cccc(-c2cc(=O)c3ccccc3o2)c1N,30%
5,Cc1cc2c(F)c(Oc3ncnn4cc(OC[C@@H](C)O)c(C)c34)ccc2[nH]1,10.2%
6,CC(C)(C)OC(=O)N[C@H]1CCCCC/C=C\[C@@H]2C[C@@]2(C(=O)NS(=O)(=O)C2CC2)NC(=O)[C@@H]2C[C@@H](OC(=O)N3Cc4cccc(F)c4C3)CN2C1=O [Danoprevir (ITMN-191)],31.3%
7,CN1CCC[C@@H]1Cc1c[nH]c2ccc(CCS(=O)(=O)c3ccccc3)cc12 [Eletriptan HBr],< 0%
8,CCc1cnn2c(NCc3ccc[n+]([O-])c3)cc(N3CCCC[C@H]3CCO)nc12,85.2%
9,O=C(c1ccccc1)c1ccc2n1CCC2C(=O)O (stereo not given) [Ketorolac],37.8%
10,CNCc1cc(-c2ccccc2F)n(S(=O)(=O)c2cccnc2)c1,50.1%
11,NC(=O)c1cn(Cc2c(F)cccc2F)nn1 [Rufinamide],36%
12,CCCCc1nc2cc(/C=C/C(=O)NO)ccc2n1CCN(CC)CC [Pracinostat (SB939)],87.5%
13,Nc1cccc(-c2cc3c(Oc4cccc(O)c4)ncnc3[nH]2)c1,33.4%
14,N#C[C@@H]1C[C@@H]2C[C@@H]2N1C(=O)[C@@H](N)C12CC3CC(CC(O)(C3)C1)C2 [Saxagliptin],25.4%
15,O=C1NC(=O)C(c2ccccc2[N+](=O)[O-])=C1Nc1ccc(O)c(Cl)c1,< 0%
16,Cc1cc(N2CCOCC2)ccc1Nc1nc(NC2CCCCC2)c2[nH]cnc2n1,81.3%
17,Cc1cc2c(s1)Nc1ccccc1N=C2N1CCN(C)CC1 [Olanzapine],28.7%
18,CCN1CCN(Cc2ccc(Nc3ncc(F)c(-c4cc(F)c5nc(C)n(C(C)C)c5c4)n3)nc2)CC1,89.2%
19,Nc1ccccc1NC(=O)c1ccc(CNc2nccc(-c3cccnc3)n2)cc1 [Mocetinostat (MGCD0103)],80.9%
20,Oc1ncnc2[nH]ncc12 [Allopurinol],19%

row,SMILES,growth inhibition
1,O=C(CSc1nc2c(c(=O)n1-c1ccccc1)SCC2)Nc1ccc(-c2ccccc2)cn1,20.6%
2,CN(C)CC/C=C1/c2ccccc2Sc2ccc(Cl)cc21 [Chlorprothixene],51.2%
3,CCN(CC)CCCC(C)Nc1nc(C)cc(Nc2ccc3nc(C)cc(N)c3c2)n1 (stereo not given),51.1%
4,COc1cc2c(cc1-c1c(C)noc1C)ncc1[nH]c(=O)n([C@H](C)c3ccccn3)c12,53.1%
5,COc1ccc([C@@H]2CC(=O)c3c(O)cc(O)cc3O2)cc1O [Hesperetin],< 0%
6,NCC(=O)Nc1ccc(-n2nc(C(F)(F)F)cc2-c2ccc3c(ccc4ccccc43)c2)cc1,27.3%
7,CC(=O)Nc1cccc(-n2c(=O)n(C3CC3)c(=O)c3c(Nc4ccc(I)cc4F)n(C)c(=O)c(C)c32)c1,< 0%
8,COc1ccccc1N1CCN(CCN(C(=O)C2CCCCC2)c2ccccn2)CC1,< 0%
9,O=C(Nc1ccc(-c2ccnc(Nc3ccc(N4CCOCC4)cc3)n2)cc1)C1CCCN1 (stereo not given),44.4%
10,O=C1NC(=O)/C(=C/c2ccc3c(c2)OC(F)(F)O3)S1,< 0%
11,COC(=O)[C@]12CCC(C)(C)C[C@H]1[C@H]1C(=O)C=C3[C@@]4(C)C=C(C#N)C(=O)C(C)(C)[C@@H]4CC[C@@]3(C)[C@]1(C)CC2 [Bardoxolone Methyl],100%
12,O=C1C(=O)N(Cc2ccc(Cl)c(Cl)c2)c2ccccc21 [Apoptosis Activator 2],< 0%
13,O=C(O)Cn1nnc(-c2cc(N3CCC(Oc4cc(F)ccc4Br)CC3)no2)n1,28.7%
14,O=C(O)CCCCC(CCSCc1ccccc1)SCc1ccccc1 (stereo not given),18.3%
15,CCCCOc1cc(C(=O)NCCN(CC)CC)c2ccccc2n1 [Dibucaine HCl],32.8%
16,CC(C)N(CCCNC(=O)Nc1ccc(C(C)(C)C)cc1)C[C@H]1O[C@@H](n2ccc3c(N)ncnc32)[C@H](O)[C@@H]1O,< 0% and 7.63%
17,Cc1ccccc1C(OCCN(C)C)c1ccccc1 (stereo not given) [Orphenadrine Citrate],24.8%
18,CC(C)(C#N)c1cc(Cn2cncn2)cc(C(C)(C)C#N)c1 [Anastrozole],31%
19,CC(C)(CO)c1cc2cc(NC(=O)C3(c4ccc5c(c4)OC(F)(F)O5)CC3)c(F)cc2n1C[C@@H](O)CO,32.4%
20,O=C(NC(NC(=S)Nc1ccc(F)c([N+](=O)[O-])c1)C(Cl)(Cl)Cl)C(c1ccccc1)c1ccccc1 (stereo not given),< 0%

# System: KB-V1
# Assay: as above
# Conditions: 1 µM; 72 h
row,SMILES,growth inhibition
1,CN(C)C(=O)[C@H](O)[C@H](Cc1ccccc1)NC(=O)c1cc2cc(Cl)ccc2[nH]1,7.81%
2,COc1cc2nc(N(C)CCCNC(=O)C3CCCO3)nc(N)c2cc1OC (stereo not given) [Alfuzosin HCl],32.2%
3,O=C1NC(=O)C(c2ccccc2)(c2ccccc2)N1 [Phenytoin],8.51%
4,COc1cccc(-c2cc(=O)c3ccccc3o2)c1N,40.4%
5,Cc1cc2c(F)c(Oc3ncnn4cc(OC[C@@H](C)O)c(C)c34)ccc2[nH]1,29.3%
6,CC(C)(C)OC(=O)N[C@H]1CCCCC/C=C\[C@@H]2C[C@@]2(C(=O)NS(=O)(=O)C2CC2)NC(=O)[C@@H]2C[C@@H](OC(=O)N3Cc4cccc(F)c4C3)CN2C1=O [Danoprevir (ITMN-191)],37.3%
7,CN1CCC[C@@H]1Cc1c[nH]c2ccc(CCS(=O)(=O)c3ccccc3)cc12 [Eletriptan HBr],1.55%
8,CCc1cnn2c(NCc3ccc[n+]([O-])c3)cc(N3CCCC[C@H]3CCO)nc12,93.3%
9,O=C(c1ccccc1)c1ccc2n1CCC2C(=O)O (stereo not given) [Ketorolac],13.5%
10,CNCc1cc(-c2ccccc2F)n(S(=O)(=O)c2cccnc2)c1,15.4%
11,NC(=O)c1cn(Cc2c(F)cccc2F)nn1 [Rufinamide],37.5%
12,CCCCc1nc2cc(/C=C/C(=O)NO)ccc2n1CCN(CC)CC [Pracinostat (SB939)],80%
13,Nc1cccc(-c2cc3c(Oc4cccc(O)c4)ncnc3[nH]2)c1,11.6%
14,N#C[C@@H]1C[C@@H]2C[C@@H]2N1C(=O)[C@@H](N)C12CC3CC(CC(O)(C3)C1)C2 [Saxagliptin],13.1%
15,O=C1NC(=O)C(c2ccccc2[N+](=O)[O-])=C1Nc1ccc(O)c(Cl)c1,< 0%
16,Cc1cc(N2CCOCC2)ccc1Nc1nc(NC2CCCCC2)c2[nH]cnc2n1,37.1%
17,Cc1cc2c(s1)Nc1ccccc1N=C2N1CCN(C)CC1 [Olanzapine],15.2%
18,CCN1CCN(Cc2ccc(Nc3ncc(F)c(-c4cc(F)c5nc(C)n(C(C)C)c5c4)n3)nc2)CC1,53.6%
19,Nc1ccccc1NC(=O)c1ccc(CNc2nccc(-c3cccnc3)n2)cc1 [Mocetinostat (MGCD0103)],74.8%
20,Oc1ncnc2[nH]ncc12 [Allopurinol],12.2%

row,SMILES,growth inhibition
1,O=C(CSc1nc2c(c(=O)n1-c1ccccc1)SCC2)Nc1ccc(-c2ccccc2)cn1,< 0%
2,CN(C)CC/C=C1/c2ccccc2Sc2ccc(Cl)cc21 [Chlorprothixene],24.3%
3,CCN(CC)CCCC(C)Nc1nc(C)cc(Nc2ccc3nc(C)cc(N)c3c2)n1 (stereo not given),6.79%
4,COc1cc2c(cc1-c1c(C)noc1C)ncc1[nH]c(=O)n([C@H](C)c3ccccn3)c12,67.6%
5,COc1ccc([C@@H]2CC(=O)c3c(O)cc(O)cc3O2)cc1O [Hesperetin],2.8%
6,NCC(=O)Nc1ccc(-n2nc(C(F)(F)F)cc2-c2ccc3c(ccc4ccccc43)c2)cc1,42.8%
7,CC(=O)Nc1cccc(-n2c(=O)n(C3CC3)c(=O)c3c(Nc4ccc(I)cc4F)n(C)c(=O)c(C)c32)c1,< 0%
8,COc1ccccc1N1CCN(CCN(C(=O)C2CCCCC2)c2ccccn2)CC1,< 0%
9,O=C(Nc1ccc(-c2ccnc(Nc3ccc(N4CCOCC4)cc3)n2)cc1)C1CCCN1 (stereo not given),16.1%
10,O=C1NC(=O)/C(=C/c2ccc3c(c2)OC(F)(F)O3)S1,< 0%
11,COC(=O)[C@]12CCC(C)(C)C[C@H]1[C@H]1C(=O)C=C3[C@@]4(C)C=C(C#N)C(=O)C(C)(C)[C@@H]4CC[C@@]3(C)[C@]1(C)CC2 [Bardoxolone Methyl],97.5%
12,O=C1C(=O)N(Cc2ccc(Cl)c(Cl)c2)c2ccccc21 [Apoptosis Activator 2],9.02%
13,O=C(O)Cn1nnc(-c2cc(N3CCC(Oc4cc(F)ccc4Br)CC3)no2)n1,42.6%
14,O=C(O)CCCCC(CCSCc1ccccc1)SCc1ccccc1 (stereo not given),56.4%
15,CCCCOc1cc(C(=O)NCCN(CC)CC)c2ccccc2n1 [Dibucaine HCl],16.9%
16,CC(C)N(CCCNC(=O)Nc1ccc(C(C)(C)C)cc1)C[C@H]1O[C@@H](n2ccc3c(N)ncnc32)[C@H](O)[C@@H]1O,< 0% and 19.7%
17,Cc1ccccc1C(OCCN(C)C)c1ccccc1 (stereo not given) [Orphenadrine Citrate],24.8%
18,CC(C)(C#N)c1cc(Cn2cncn2)cc(C(C)(C)C#N)c1 [Anastrozole],37.2%
19,CC(C)(CO)c1cc2cc(NC(=O)C3(c4ccc5c(c4)OC(F)(F)O5)CC3)c(F)cc2n1C[C@@H](O)CO,8.19%
20,O=C(NC(NC(=S)Nc1ccc(F)c([N+](=O)[O-])c1)C(Cl)(Cl)Cl)C(c1ccccc1)c1ccccc1 (stereo not given),< 0%
